# Experimental data published in PubChem BioAssay AID493014 (National Center for Advancing Translational Sciences (NCATS), 2011).
# The whole screen tested about 340,000 compounds, of which about 170 (0.05%) were called active. Not shown: some 26% with an inconclusive outcome. Calls come from the whole dose curve; as a rule, active = well fitted inhibition curve with a large enough effect in the signal ratio, with a control signal flat (not every such curve was filed as active); inconclusive = small, poorly fitted or top-dose-only effect, or effect the other way, or a change in a side signal; inactive = flat fitted curve, though single readings scatter; the % refers to the signal ratio. The entries are a selection whose mix differs from that of the whole data set.
# Experiment: qHTS Assay to Find Inhibitors of Chronic Active B-Cell Receptor Signaling;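 for activity change, negative = inhibition: plate controls were basal doxycycline-induced cells for no effect and cells given 10 µM MG132 for full effect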
# Conditions: ABC-DLBCL IkBa-CBG/CBR reporter, luminescence ratio (green luciferase fused to IkBa over red control in TMD8 lymphoma cells), 4 h; series mostly up to 46.1 µM; activity change, negative = inhibition: at the top concentration
# Method in brief: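 Compounds up to 46 uM were incubated four hours with TMD8 cells whose green CBG68 luciferase is fused to IkappaBalpha; red CBR luminescence normalised the signal, and concentration-effect curves were fitted to fusion, red and ratio data.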
# Potency is the fitted concentration of half-maximal effect.
Compound,"activity change, negative = inhibition",Potency
Cc1cccc(-c2ccc3ncnc(NCc4cccs4)c3c2)c1,inactive: 7.39%,–
O=C(Nc1ccc2c(c1)CCCN2C(=O)c1cccs1)c1c(F)cccc1F,inactive: 7.61%,–
CC(C)(C)NC[C@H](O)COc1cccc2c1CCCC2=O,inactive: 1.86%,–
C[C@H]1CC[C@]2(O[C@H](CCO)C[C@@H](O)[C@@H]2O)O1,inactive: -1.57%,–
CCOC(=O)[C@@H]1[C@H]2COc3ccc(Br)cc3[C@H]2N2C(=O)N(c3cccc(F)c3)C(=O)[C@]12C,inactive: 11.6%,–
O=C(NCc1ccccc1)C1=C[C@H](c2csc3ccccc23)C[C@H](OCCCCO)O1,inactive: 5.18%,–
O=C(/C=C\c1ccccc1OC(=O)c1ccccc1F)c1cc2ccccc2o1,–,active: 13 µM
CN1CCN(C(=O)C2=C[C@H](c3coc4ccccc4c3=O)C[C@H](OCc3ccc(CO)cc3)O2)CC1,inactive: -0.866%,–
NC(=O)C1CCN(c2nc(-c3ccc(Br)cc3)cs2)CC1,–,inactive
CCO[C@@H]1OC(C(=O)NC2CC2)=C[C@H](c2c[nH]c3ccccc23)[C@H]1CCCO,inactive: 0.043%,–
Cn1ccnc1SCC(=O)c1ccc(Cl)cc1,–,active: 17.8 µM
C[C@H]1CC[C@@]2(O[C@H](CCO)C[C@@H](O)[C@@H]2O)O1,inactive: 18.5%,–
CCc1nn(CCCN2CCN(c3cccc(Cl)c3)CC2)c(=O)n1CCOc1ccccc1,inactive: 4.32%,–
Nc1ncnc2nc[nH]c12,inactive: 1.21%,–
O=C(OCC#CCSc1nnc(-c2cccc3ccccc23)o1)c1ccc(Br)cc1,inactive: 1.03%,–
NC(=O)C1CCN(c2nc(-c3cccs3)cs2)CC1,inactive: -3.64%,–
CCCCCn1c(=N)n(CC(O)COc2ccccc2OC)c2ccccc21 (stereo unspecified),inactive: -7.29%,–
Cc1c(N=C/C=C2/N(C)c3ccccc3C2(C)C)c(=O)n(-c2ccccc2)n1C,inactive: 12.8%,–
Cc1cc(/C=C2\NC(=O)NC2=O)c(C)n1-c1ccc(N2CCOCC2)cc1,inactive: 4.45%,–
C=CCC[C@H](Cc1ccc(F)cc1)C(=O)OC[C@@H](C)NC(=O)[C@H](CC=C)CC(=O)N(CCO)Cc1ccccc1,inactive: 4.13%,–
CN1CCN(C(=O)c2ccc3c(c2)N(Cc2cccc(Cl)c2)C(=O)c2ccccc2S3(=O)=O)CC1,inactive: 2.85%,–
CCN1C(=NCCN2CCOCC2)N[C@@H](c2ccccc2)C(C(=O)OC)=C1C,inactive: -13.3%,–
Cn1c(SCC(=O)N/N=C/C=C\c2ccccc2[N+](=O)[O-])nc2ccccc21,inactive: -5.25%,–

Compound,"activity change, negative = inhibition",Potency
COc1cc(/C=C/c2ccc(O)cc2)cc(OC)c1,–,active: 12.6 µM
CCN1C(=NCCc2cccnc2)N[C@@H](c2ccccc2)[C@H](C(=O)OC)[C@H]1C,inactive: -12.3%,–
COc1ccc(NC(=S)Nc2ccccc2)cc1,inactive: -1.31%,–
CCOC(=O)/C(C#N)=C\C1=C(N2CCCC2)CC(C)(CC)OC1 (stereo unspecified),inactive: 21.1%,–
CCOC(=O)[C@@H]1[C@H]2COc3cc(OC)ccc3[C@H]2N2C(=O)N(c3ccc(Br)cc3)C(=O)[C@]12C,inactive: -5.29%,–
COc1cccc(-c2nc(-c3ccc(Br)o3)no2)c1,inactive: 11.8%,–
C[C@@]12C(=O)N(c3ccccc3)C(=O)N1[C@@H]1c3ccccc3OC[C@@H]1[C@H]2c1ccccc1,inactive: 6.81%,–
O=C(CCSCCc1ccccn1)Nc1cc(F)ccc1F,inactive: -6.43%,–
CCOC(=O)c1c(S(=O)(=O)N2CCCC(C(=O)Nc3ccc(C)cn3)C2)c(C)n(C)c1C (stereo unspecified),inactive: 3.63%,–
CC(C)(C)OC(=O)N[C@@H](C(=O)OC(C)(C)C)c1ccc2c(c1)OCO2,inactive: -0.712%,–
CNCCCC12CCC(c3ccccc31)c1ccccc12,inactive: -8.13%,–
CCC(C)[C@H](NC(=O)N1CC(=O)Nc2ccccc21)C(=O)N[C@@H](Cc1c[nH]c2ccccc12)C(=O)O (stereo partly specified),inactive: 3.2%,–
CC(C)(C)CN1C(N)=NC[C@@H]1Cc1ccc(O)cc1,inactive: -1.61%,–
CC(Sc1ccc2ccccc2n1)C(=O)O (stereo unspecified),inactive: -3.66%,–
CC1CC(C)(C)NC(=S)O1 (stereo unspecified),inactive: 2.14%,–
O=C(NC(=S)N1CCOCC1)c1ccc([N+](=O)[O-])cc1,–,active: 23.1 µM
CC(=O)C[C@@H](O)CC(=O)[C@H]1OC(=O)CCCCCCCCc2ccccc21,inactive: -2.72%,–
Nc1ccc(C(=O)O)cc1,inactive: -12%,–
C=CC[C@H](CC(=O)NCCO)C(=O)N[C@@H](COC(=O)[C@@H](CC=C)CC(=O)OC(C)(C)C)Cc1c[nH]c2ccccc12,inactive: 0.175%,–
Clc1ccccc1-c1nc(-c2ccncc2)no1,inactive: -1.98%,–
COc1ccc(/C=C2\C(=O)ON=C2c2ccccc2)cc1OC,inactive: 7.2%,–
O=C(NCc1nc2ccccc2[nH]1)C1=C[C@@H](C2CC2)C[C@@H](OCc2ccc(CO)cc2)O1,inactive: -16.9%,–
CC(=O)CCCCn1c(=O)c2c(ncn2C)n(C)c1=O,inactive: -1.52%,–

Compound,"activity change, negative = inhibition",Potency
C[C@@H]1COC(=O)[C@H](CC(=O)OC(C)(C)C)C/C=C\C[C@@H](CC(=O)N[C@H](CO)Cc2ccccc2)C(=O)N1,inactive: -2.22%,–
COC(=O)N1C(=O)[C@](Cc2ccccc2)(c2ccccc2)N1C(=O)OC,inactive: -0.551%,–
O=C1OC[C@H]2CCCN2C(=O)[C@@H](CC(=O)N(CCO)Cc2ccccc2)C/C=C\C[C@H]1Cc1ccc(F)cc1,inactive: -0.0341%,–
CCCSc1ccc([C@@H]2[C@H]3C(=O)N(C)C(=O)[C@H]3[C@]3(C(=O)OC)CCCN23)cc1OC,inactive: -2.7%,–
CC(=O)O[C@]1(C(C)=O)CCC2C3C=C(C)C4=CC(=O)CC[C@]4(C)C3CC[C@@]21C (stereo partly specified),inactive: -0.0693%,–
CCCN1C(=O)/C(=C/C=C2\N(CC)c3ccccc3C2(C)C)SC1=S,inactive: 9.24%,–
O=C1NCC(O)=C1C=NC12CC3CC(CC(C3)C1)C2,inactive: -7.87%,–
O=C1NC[C@@H](c2ccccc2)OC(=O)[C@@H](Cc2ccc(F)cc2)C/C=C\C[C@@H]1CC(=O)N(CCO)Cc1ccccc1,inactive: 4.35%,–
O=C1N=C(N2CCOCC2)S/C1=C\c1ccc(-c2ccccc2Cl)o1,inactive: 1.43%,–
C[C@H](CO)N1C[C@H](C)[C@@H](CN(C)C(=O)NC2CCCCC2)Oc2c(NC(=O)C3CCCCC3)cccc2C1=O,inactive: 0.173%,–
O=C(O)c1cc(O)c2c(c1)[C@@H]([C@H]1c3cc(C(=O)O)cc(O)c3C(=O)c3c(O[C@@H]4O[C@H](CO)[C@@H](O)[C@H](O)[C@H]4O)cccc31)c1cccc(OC3O[C@H](CO)[C@@H](O)[C@H](O)[C@H]3O)c1C2=O (stereo partly specified),inactive: 0.177%,–
COc1ccc(S(=O)(=O)Nc2ccc3c(c2)C(=O)N([C@@H](C)CO)C[C@H](C)[C@H](CN(C)S(=O)(=O)c2ccc(F)cc2)O3)cc1,inactive: -2.91%,–
CC1=NN(c2ccccc2)C(=O)/C1=C\C=C1/N(C)c2ccccc2C1(C)C,inactive: 14.4%,–
CC[n+]1c(/C=C(/C)SC)sc2ccccc21,inactive: 3.86%,–
C=CC[C@@H](CC(=O)NCCO)C(=O)N[C@H](C)COC(=O)[C@@H](CC=C)CC(=O)OC(C)(C)C,inactive: 6.6%,–
CCCC(=O)N1CCc2cc(OC)c(OC)cc2C1COc1ccccc1OC (stereo unspecified),inactive: -2.6%,–
O/N=C1/CC/C(=N\O)c2nn(-c3ccccc3)nc21,–,active: 5.8 µM
OCC#CCSc1nnc(-c2cccc3ccccc23)o1,inactive: -4.29%,–
CC1=NN(c2ccccc2)C(=O)/C1=C\c1cn(C)c2ccccc12,inactive: 6.86%,–
C=CC[C@@H](CC(=O)N(CCO)Cc1ccccc1)C(=O)N[C@H](COC(=O)[C@@H](CC=C)CC(=O)OC(C)(C)C)Cc1c[nH]c2ccccc12,inactive: -1.24%,–
c1ccc(-c2nc[nH]c2-c2ccccc2)cc1,inactive: -4.38%,–
O=C(O)/C=C/C(=O)NC1CCCCC1,inactive: 7.64%,–
O=C(NCc1ccccc1)C1=C[C@@H](C2CC2)C[C@@H](OCc2ccc(CO)cc2)O1,inactive: 12.7%,–

Compound,"activity change, negative = inhibition",Potency
CC(C)(C)OC(=O)C[C@@H]1C/C=C\C[C@H](CC(=O)N(CCO)Cc2ccccc2)C(=O)N2CCC[C@H]2COC1=O,inactive: -0.545%,–
CN1CCN(C(=O)C2=C[C@@H](c3csc4ccccc34)C[C@@H](OCCCCO)O2)CC1,inactive: -0.436%,–
[O-]/[N+](=C/c1ccc(F)cc1)c1ccccc1,inactive: -13.6%,–
CCOC(=O)CC(NC(=O)Cn1nnc(-c2ccccc2Cl)n1)c1ccc(OC)cc1 (stereo unspecified),inactive: -18.7%,–
CC(C)(C)NNC(=S)Nc1cccc(C(F)(F)F)c1,–,active: 7.94 µM
CC1(C)CC(=O)C2=C(C1)OC(N)=C(C#N)[C@@H]2c1ccccc1[N+](=O)[O-],inactive: 5.14%,–
Cc1noc(NS(=O)(=O)c2ccc(N/C=C\C(=O)c3ccc4c(c3)OCO4)cc2)c1C,inactive: 6.66%,–
Cc1c(Cl)cccc1NC(=S)N=Nc1c(O)n(CN2CCOCC2)c2ccccc12,–,active: 7.31 µM
O=C1NC(=Nc2ccccc2)S/C1=C\c1cccnc1,inactive: 1.91%,–
CC(/C=C/c1ccc(Cl)o1)=C\C(=O)O,inactive: 8.71%,–
c1ccc(C2=Nn3c(nnc3-c3cc(-c4ccccc4)n[nH]3)SC2)cc1,–,active: 11.6 µM
O=C(N/C(=C\c1ccccc1)C(=O)N1CCCCC1)c1ccc(Br)o1,inactive: 3.3%,–
CC(=O)c1cc2c(cc1N/C(=N/S(=O)(=O)c1ccc(C)cc1)c1ccccc1)OCO2,inactive: 4.83%,–
CCOC(=O)C1CCCN(S(=O)(=O)c2ccc(F)c(C(=O)Nc3ccc(F)c(F)c3)c2)C1 (stereo unspecified),inactive: 8.65%,–
CC(C)(C)OC(=O)C[C@H]1C/C=C\C[C@H](CC(=O)N[C@H](CO)Cc2ccccc2)C(=O)N2CCC[C@H]2COC1=O,inactive: -0.489%,–
Cc1cc(N2C(=O)C3C4CC(C(Br)C4Br)C3C2=O)no1 (stereo unspecified),inactive: 0.466%,–
CC(C)(C)OC(=O)C[C@H]1C/C=C\C[C@@H](CC(=O)N[C@@H](CO)Cc2ccccc2)C(=O)N2CCC[C@@H]2COC1=O,inactive: -1.39%,–
Cn1ccc2cc(-c3ccc4ncnc(NCc5cccs5)c4c3)ccc21,inactive: -12.9%,–
O=C(C[C@H]1C/C=C\CC[C@H](Cc2ccc(F)cc2)C(=O)OCCNC1=O)NCCO,inactive: 1.72%,–
CCOC(=O)[C@@H]1[C@H]2COc3ccccc3[C@@H]2N2C(=O)N(c3cccc(Cl)c3)C(=O)[C@]12C,inactive: 11.5%,–
CC1=CS(=O)(=O)CC1Sc1nc2ccccc2[nH]1 (stereo unspecified),inactive: -0.385%,–
C[C@@]12C(=O)N(c3ccc(F)cc3)C(=O)N1[C@@H]1c3ccccc3OC[C@@H]1[C@H]2c1ccccc1,inactive: -1.75%,–
